In PubChem BioAssay AID1508623 (National Center for Advancing Translational Sciences (NCATS), 2021):
Screen size: about 48,000 compounds; about 450 (0.94%) were called active. Roughly 19% stayed inconclusive and do not appear here. Calls come from the whole dose curve; as a rule, active = well fitted inhibition curve with a large enough effect; inconclusive = small, poorly fitted or top-dose-only effect; inactive = no such curve, though single readings can be large or run the other way. Some of the results follow.

assay: Primary qHTS for Identification of Small Molecule Inhibitors of Huntingtin Promoter Activity; conditions: HEK293 HTT promoter firefly luciferase reporter (activity 0% = vehicle and -100% = no light), 24 h; series mostly up to 57.5 µM; activity change, negative = inhibition: at the top concentration; note: nearly all actives have a fitted effect of over 50% in size
In short: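 Firefly luciferase signal from promoter-reporter HEK293 cells was scaled between vehicle (0%) and zero RLU (-100%). Compounds were tested at final concentrations of up to 57.5 uM over 24 h at 37 degrees C. PTC124 at 50 uM final served as control inhibitor.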

Activity change, negative = inhibition, inactive:
CC(C)CN(CCCNC(=O)CN1N=C(c2ccccc2)CCC1=O)CC(C)C -8.09%
COc1ccc(N2CCN(c3ccc(-c4nc(-c5cccc(C)c5)no4)cc3[N+](=O)[O-])CC2)cc1 25.1%
O=C(NCCC1=CCCCC1)c1ccc2c(c1)N(Cc1cccc(Cl)c1)C(=O)c1ccccc1S2(=O)=O -45.5%
CCOc1ccc(NC(=O)Cn2c(=O)cc(C)c3c(C)nn(-c4cccc(Cl)c4C)c32)cc1 -1.17%
CCOc1ccc(C(=O)N2CCN(CCc3ccccn3)CC2)cc1 -12.2% [at 11.5 µM]
Cn1c(=O)[nH]c(=O)c2c1nc1n2CCN1c1ccccc1 1.51%
CCOc1ccc(S(=O)(=O)c2cn(Cc3ccc(OC)cc3)c3ccc(F)cc3c2=O)cc1 -19.5%
CCOC(=O)CC(NC(=O)CCc1c(C)nc2ncnn2c1C)c1ccc(OC(C)C)cc1 (centres undefined) 0.587%
Cc1ccccc1CSc1nc2cccnc2n1Cc1ccc(C(=O)NC2CC2)cc1 -5.5%
CCOC(=O)c1ccccc1NC(=O)CSc1cn(CC(=O)N2CCOCC2)c2ccccc12 -10.7%
COc1ccc(CNC(=O)C2CCC(CNS(=O)(=O)c3cccs3)CC2)cc1 (centres undefined) -9.81%
Cc1ccc(-c2nc(S(=O)(=O)c3ccc(C)cc3)c(N3CCCCCC3)o2)cc1 -13.9%
Cc1ccc(N2CCN(S(=O)(=O)c3nnc(NC(=O)c4ccc(C(C)C)cc4)s3)CC2)cc1 -2.31%
CCOc1ccc(NC(=O)CN2C(C(=O)OC)=C(c3ccccc3)c3cc(Cl)ccc3S2(=O)=O)cc1 -2.6%
Cc1cc(=O)[nH]c2nnc(SCc3ccc(Cl)cc3)n12 -15.2%
COC(=O)C1=C(c2ccccc2)c2ccccc2S(=O)(=O)N1CC(=O)Nc1ccc(OC)cc1OC -21.9%
O=C(NCc1ccccc1)C1CCN(S(=O)(=O)c2ccc3[nH]c(=O)ccc3c2)CC1 8.92%
Cc1cccc(N(C)S(=O)(=O)c2c(C(=O)N3CCCCCC3)c(C)n(C)c2C)c1 -0.535%
Cc1cc2nc(-c3cccc(NC(=O)COc4ccc(Cl)c(C)c4)c3)oc2cc1C 41.3%
Cc1ccc(CNC(=O)CN2CCN(Cc3ccc(F)cc3)C2=O)cc1 -4.89%
COc1ccccc1-c1cc(NC(=O)COc2ccc(C)c(C)c2)n(-c2ccccc2)n1 -13.1%
COc1ccccc1NC(=O)C1CCN(S(=O)(=O)c2cn(C)cn2)CC1 -15.5%
CCOc1ccc(CCNC(=O)c2cnc3sc(N4CCCCCC4)nn3c2=O)cc1 0.0464%
COc1ccc(OC)c(NC(=O)CN2CCCN(Cc3cc(C)ccc3C)S2(=O)=O)c1 -2.8%
Cc1cccc2c1-c1sc(C(=O)N3CCN(c4cccc(Cl)c4)CC3)cc1CO2 -12.6%
COc1ccc(-c2cc(C(F)(F)F)nc(SCC(=O)NCc3ccc(Cl)cc3)n2)cc1 -4.73%
CC1=C(C(=O)Nc2ccc(F)cc2F)C2(CCCCCC2)OC1=O -8.93%
O=C(CN1C(=O)C2(SCC(=O)N2c2ccc(F)c(F)c2)c2ccccc21)Nc1ccccc1F (centres undefined) -13.8%
O=C(CSc1nccn1Cc1ccc(Cl)cc1)NCc1ccccc1 -14.6%
COc1ccccc1CNC(=O)C(CC(C)C)N1Cc2ccccc2C1=O (centres undefined) -29.3%
Cc1ccc(C)c(C(=O)COC(=O)CCCC(=O)Nc2cc(C(F)(F)F)ccc2Cl)c1 -15.2%
O=S1(=O)c2ccccc2N(Cc2ccc(Cl)cc2F)c2ccccc21 2.58%
CN(C)S(=O)(=O)c1ccc2c(c1)c(=O)c(C(=O)N1CCN(c3cccc(Cl)c3)CC1)cn2C 2.41%
COc1ccc(OC)c(NC(=O)CSC2=Nc3ccccc3C3=NC(CCC(=O)NCc4ccco4)C(=O)N23)c1 (centres undefined) -8.85%
CCOC(=O)c1ccc(NC(=O)CN(c2ccc(C)cc2)S(=O)(=O)c2ccc(OC)cc2)cc1 -13.5%
CCC(=O)Nc1nnc(S(=O)(=O)N(C)Cc2ccc(Cl)cc2)s1 -0.815%
CCOc1ccccc1NC(=O)CSC1=Nc2ccccc2C2=NC(CC(=O)NC3CCCCC3)C(=O)N12 (centres undefined) -14.7%
CCOc1ccc(-c2nc3c(c(SCC(=O)N4CCCCC4)n2)Cc2cc(C)ccc2O3)cc1 -18.2%
COc1ccc(N2CCN(CCCNC(=O)Nc3ccccc3Cl)CC2)cc1 -10.2%
COc1ccc(CCNC(=O)CN(c2ccc(C)cc2)S(=O)(=O)c2ccc(OC)cc2)cc1 -18.4%
CCOc1ccc(CN2C(=O)c3ccccc3Sc3ccc(C(=O)N4CCN(C)CC4)cc32)cc1 -20.7%
CCC(Sc1nc2cc(OC)c(OC)cc2c(=O)n1Cc1ccc(Cl)cc1)C(=O)NCCOC (centres undefined) -3.28%
Cc1cc(NC(=O)c2cccnc2)cc(-c2nc3cc(Cl)ccc3o2)c1O -5.89%
Brc1ccc(-c2ccc(CNCCSc3nnnn3-c3ccccc3)o2)cc1 60.2%
O=C(NC1CC(=O)N(c2ccccc2)C1)c1ccc(S(=O)(=O)N2CCOCC2)cc1 (centres undefined) -30.8%
c1ccc(-c2cn(-c3ccccc3)c3ncnc(N4CCN(c5ccccc5)CC4)c23)cc1 -16%
COc1ccccc1N1CCN(c2ccc3cc(S(=O)(=O)N4CCCCC4)ccc3n2)CC1 -28%
CCOC(=O)CC(NC(=O)c1cc2cc(Cl)ccc2oc1=O)c1ccc(C)cc1 (centres undefined) -7.88%
CCOc1ccc(-n2nc(CO)c(C(=O)NCc3ccc(Cl)cc3)n2)cc1 0.147%
CC1CCN(C(=O)CSc2c3c(nc4cc(Cl)ccc24)CCCC3)CC1 -15.2%
Cc1ccc(-c2nnc(SCCOc3ccccc3)o2)cc1 16.4%
COc1ccc(Br)c2c1-c1nc(NC(=O)c3cccc(C)c3)sc1C2 -7.36%
CC(=O)c1ccc(NC(=O)CSc2cn(CC(=O)N3CCCCC3)c3ccccc23)cc1 -16.8%
O=C(Nc1ccc(S(=O)(=O)N2CCC(c3nc4ccccc4s3)CC2)cc1)c1ccc(F)cc1 -10.9%
Cc1cc(C)c(S(=O)(=O)NCCc2cc3c(C)ccc(C)c3[nH]c2=O)c(C)c1 -3%
Cc1ccc(NC(=O)C2Cc3ccccc3N2C(=O)c2ccccc2)cc1Cl (centres undefined) -7.64%
Cc1ccc(C)c(-n2nnc(-c3nc(-c4ccc(Cl)cc4)no3)c2N)c1 28.3%
CCCC(=O)NCCc1nc2ccccc2n1Cc1c(F)cccc1Cl -23.6%
COc1ccc(NC(=O)c2sc3nc(C)c(C(=O)Nc4ccc(C)cc4C)c(-c4ccc(Cl)cc4)c3c2N)cc1 -21.9%
O=C(NCc1ccc2c(c1)CCN2C(=O)c1ccncc1)c1cccc(Cl)c1 -4.31%
NNC(=O)c1ccncc1
CN(C(=O)CCCOc1ccc2[nH]c(=O)ccc2c1)C1CCCCC1 -0.849%
Cc1ccc(NC(=O)c2cccc(NC(=O)N3CCSc4ncccc43)c2)cc1Cl -9.29%
COc1ccc(N2CCN(C(=O)Cn3ncc4c3-c3cc(C)ccc3OC4)CC2)cc1 -13.2%
COc1ccc(-c2nc3sc(CCNC(=O)C(=O)Nc4cc(C)cc(C)c4)c(C)n3n2)cc1 -1.07%
CCN(C(=O)c1nn(-c2ccc(OC)c(Cl)c2)c(=O)c2c1c1ccccc1n2C)c1cc(OC)ccc1OC -16.3%
Cc1ccc(C(=O)NCC(c2cccs2)S(=O)(=O)c2cccs2)cc1C (centres undefined) -15.3%
CCOc1ccc(NC(=O)CN(C)S(=O)(=O)c2ccc3c(c2)c(=O)n(C)c(=O)n3C)cc1 -12%
COc1cc(OC)cc(C(=O)Nc2cc(-c3nc4ccccc4s3)ccc2OC)c1 -8.68%
O=C(NCC(c1ccc(Cl)cc1)N1CCCCC1)c1ccc(F)cc1 (centres undefined) -18.1%
COc1cccc(-c2cc(C(F)(F)F)nc(-n3nc(C)c(Br)c3C)n2)c1 -15.4%
Cc1ccc(-n2c(SCc3ccccc3F)nc3[nH]ncc3c2=O)cc1C -18.3% [at 11.5 µM]
Cc1cccc(NC(=O)Cn2nc(-c3ccc(Cl)cc3)c3ccccc3c2=O)c1 -13.1%
COc1ccccc1CNC(=O)c1cccn1-c1nnc(N2CCCC2)s1 -0.25%
Cc1cccc(NC(=O)C(=O)c2cc(C)n(-c3ccccc3)c2C)c1C -26%
CCOc1cccc2cc(-c3nc4sc(C(=O)Nc5ccc(C)cc5)c(C)c4c(=O)[nH]3)c(=O)oc12 -11.8%
CC(=O)c1cc(-c2ccccc2)n(CC(=O)NC2CCCCCC2)c1C -16.1%
Cc1cc(O)c(C(c2cccc(F)c2)N2CCC(C)CC2)c(=O)n1Cc1ccco1 (centres undefined) -9.84%
O=C(Cn1c(=O)n(Cc2cccs2)c(=O)c2cccnc21)Nc1ccccc1F -14.2%
CCc1nc(-c2cc(S(=O)(=O)N3CCN(c4ccc(F)cc4)CC3)ccc2OC)no1 -20.3%
Cc1cccc(NC(=O)CSc2nc3c(c(=O)[nH]2)CN(Cc2ccc4c(c2)OCO4)CC3)c1C -18.8%
CCc1ccc(-n2c(=O)c3cccnc3n2CC(=O)NCc2ccc(F)cc2)cc1 -20.9%
O=C(NCc1cccc(F)c1)c1ccc(CS(=O)c2ccccc2Cl)o1 (centres undefined) -6.19%
CCOC(=O)N1CCc2c(sc3c2c(=O)n(Cc2ccccc2)c(=O)n3CC(=O)Nc2c(C)cccc2C)C1 -14.7%
Cn1c(=O)c(=O)n(C)c2cc(S(=O)(=O)N3CCN(c4ccccc4F)CC3)ccc21 -24.4%
Cc1cccc(C)c1OCC(=O)Nc1nonc1-c1ccc(Br)cc1 -14.1%
CCN(C(=O)CCS(=O)(=O)c1cccc2nsnc12)c1cccc(C)c1 -9.93%
O=C(Nc1nc2n(n1)C(c1ccc(F)cc1)C=C(c1ccc(Cl)cc1)N2)c1ccco1 (centres undefined) -29.8%
CCOc1ccc2oc(=O)cc(CN3CCN(c4ccc(OC)cc4)CC3)c2c1 -9.02%
CCN(C(=O)c1cc2c(s1)-c1c(C)cccc1OC2)c1cc(C)ccc1C -19.8%
COc1ccc(OC)c(NC(=O)Cn2c(=O)oc3cc(S(=O)(=O)NCc4ccccc4)ccc32)c1 -29.8%
O=C(NCC12CC3CC(CC(C3)C1)C2)c1cc2nc(-c3ccc(Cl)cc3)cc(C(F)(F)F)n2n1 -7.28%
Clc1cccc(-c2nnc(CN3CCN(c4ccccn4)CC3)o2)c1 3.68%
Cc1cc(S(=O)(=O)Nc2cc3c(cc2N2CCOCC2)n(C)c(=O)n3C)ccc1F -11.5%
